From the RNAGym collection of RNA variant scans (doi:10.1073/pnas.2313332121)
This sample is rich in variants without activity.

B1: TPR 5TU (parent)
chain: GGAUCUUCUCGAUCUAACAAAAAAGACAAAUCUGCCACAAAGCUUGAGAGCAUCUUCGGAUGCAGAGGCGGCAGCCUUCGGUGGCGCGAUAGCGCCAACGUUCUCAACUAUGACACGCAAAACGCGUGCUCCGUUGAAUGGAGUUUAUCAUG

Variants of: B1
Assay: polymerase ribozyme fitness, log enrichment relative to wild type (log ratio); higher = more active; in vitro selection for triplet polymerase activity
How it was run: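 Frozen incubation at −7 °C formed the core of a single, triplicate in vitro selection round applied to PCR-built, transcribed mutant libraries of each subunit of a heterodimeric triplet polymerase ribozyme. Extended constructs were gel-excised, captured with streptavidin beads and amplified by RT-PCR, and input and output libraries were Illumina-sequenced with a filter of ≥10 input reads and ≥1 read per output. Fitness is the logarithm of genotype enrichment relative to wild-type enrichment, with inverse-variance-weighted replicate averaging, and the logarithm is base 2.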

| Variant | polymerase ribozyme fitness (log ratio) |
| --- | --- |
| A73U C96U C108G G141A U146G | ≤ -4.2 |
| C76A A138U | -4.05 |
| C76G G86A | ≤ -4.2 |
| A73G C76U C93A C99A U145A | ≤ -4.2 |
| G74U C85G C99A A107U C125A | ≤ -4.2 |
| C79A U101G | ≤ -4.2 |
| A73G G88A A107G | ≤ -4.2 |
| U82C G94U A98G A107C | ≤ -4.2 |
| G74C | -3.96 |
| G74U | -3.33 |
| G74A | -2.81 |
| G80C G83A A110U | ≤ -4.2 |
| C75U G80C G88U U90C C95G | ≤ -4.2 |
| C76A G94A | -0.598 |
| U82A U127C G152U | -3.97 |
| G80A G81C C95G U145G | -1.72 |
| C79G A98G G100C G124A | -2.18 |
| G83C C125U U146G | -3.89 |
| U77A G84A A107C | ≤ -4.2 |
| C75U G88C A89U G117A G126C | ≤ -4.2 |
| C76U G81A | 0.573 |
| C75G C93U U102C C103G C118G | ≤ -4.2 |
| U77A A91U G141A U151G | ≤ -4.2 |
| A73C A91G C116U | ≤ -4.2 |

| Variant | polymerase ribozyme fitness (log ratio) |
| --- | --- |
| A73U G83A C93U A138C U145C | ≤ -4.2 |
| G80C G86C G100C C103G | ≤ -4.2 |
| G74U C99G | ≤ -4.2 |
| U82G C85U A107U | -3.59 |
| U82G G84U C85U A107C | ≤ -4.2 |
| G81A C118A U148C | -2.6 |
| C76U C108G G141U U144G | ≤ -4.2 |
| G81C G92A U151A | ≤ -4.2 |
| C75G G83A G100A A107U C116G | ≤ -4.2 |
| C72U G88C C99U C105U C123A G140U | ≤ -4.2 |
| C79A C87A A98U U101G | ≤ -4.2 |
| A73U G92U G141A U145A | -3.24 |
| C76U G84U A98U | -1.66 |
| C79A C116A | -3.87 |
| U77G G117U | ≤ -4.2 |
| C75U G84U U148A | ≤ -4.2 |
| C79A A106G U146G | ≤ -4.2 |
| U77G G84U | ≤ -4.2 |
| C79A G88A | ≤ -4.2 |
| U77A C85U A91G G133C A142G | ≤ -4.2 |
| G83A C87U C123G A142G | -2.09 |
| A73G U104A A110C | ≤ -4.2 |
| A73U C87G C116A A122G | ≤ -4.2 |
| U82C G83A C103U | -0.585 |

| Variant | polymerase ribozyme fitness (log ratio) |
| --- | --- |
| C79U C93U | -3.03 |
| C79U C93A | -3.77 |
| G83C C118G | -0.968 |
| G80A A89C U151C | ≤ -4.2 |
| U77G G86U C93G C96A C118G U145G | ≤ -4.2 |
| G83C C105G G126A | -2.8 |
| C79G C95U | -3.03 |
| A73U A98G G126U U127A | ≤ -4.2 |
| C75A U78C C123U G128C | ≤ -4.2 |
| C72U G92A C116U U139G | -3.15 |
| C75U C85A | -1.84 |
| C75U C85U | 0.543 |
| G83C C99G C105U | ≤ -4.2 |
| C76U G84U | -0.883 |
| A73G C76A G88C C105G C108G C114U G136U | -3.91 |
| C75G G84U A107U A121G | ≤ -4.2 |
| C75G U127G | ≤ -4.2 |
| C75G G100C U135A | ≤ -4.2 |
| C76G G92U A121G G143U | ≤ -4.2 |
| C79G C96U C105U U134A | ≤ -4.2 |
| C76G G84U | ≤ -4.2 |
| U77C C96A | -2.82 |
| U82A C87A | ≤ -4.2 |
| C76A C123U U134A | -1.5 |

| Variant | polymerase ribozyme fitness (log ratio) |
| --- | --- |
| C76G C96U C129G A147C | ≤ -4.2 |
| A73G A91C C95U A121C C125U | ≤ -4.2 |
| A73G G83U C87A A89C | ≤ -4.2 |
| A73G C87G | ≤ -4.2 |
| A73G C87A | -4.18 |
| G74A C85G C131A | ≤ -4.2 |
| A73U G83C C95A G117U U135G | ≤ -4.2 |
| C75U C93U C114G G117U C123A G126C | ≤ -4.2 |
| G83C G86C C105G A115U A121G G143C G152C | ≤ -4.2 |
| C76A G83U A106G | -3.45 |
| U82C C118U C129U G140A U148A | ≤ -4.2 |
| U82G C85A C95U U146A A150U | -1.37 |
| C75A G86A A120C | ≤ -4.2 |
| C76G U102G | ≤ -4.2 |
| C79U G88C C93A G136U G143C | ≤ -4.2 |
| U78G U82A C108G C125U U135C U151A | ≤ -4.2 |
| C79U A121U | -1.2 |
| U78A G83U A91U G94C U135G G136C | ≤ -4.2 |
| C76U U78G | ≤ -4.2 |
| C76A U82A C85G A106G A107U C108G C129A | ≤ -4.2 |
| C75A U78C C87U C93G G124U | ≤ -4.2 |
| G83A C99U | -2.05 |
| G74A C85A G86A C93G C114U U139G | ≤ -4.2 |
| C79A G83U | ≤ -4.2 |

| Variant | polymerase ribozyme fitness (log ratio) |
| --- | --- |
| U77C C93U C105G | ≤ -4.2 |
| C79U A89U C96G U102G A107C G143C U144A | ≤ -4.2 |
| C76G C87U C118U | ≤ -4.2 |
| A73G C93U A110U | ≤ -4.2 |
| G80C C87A A150C | ≤ -4.2 |
| U82G G94U | -0.833 |
| C76A C87G A98U A115G G141C | ≤ -4.2 |
| C75U G86U C87G U135C | ≤ -4.2 |
| U77G G81A A97G C99G U101C G141U A142G | ≤ -4.2 |
| G74C U104A C105G A115G U146G | ≤ -4.2 |
| C75U U90C A91U C93G G94U A98C | ≤ -4.2 |
| G80C A91U A137G | ≤ -4.2 |
| C79U C93U C105G U146C | ≤ -4.2 |
| G74C C76G G84A C93G A107G | ≤ -4.2 |
| G83C A110U U127C | ≤ -4.2 |
| C76U G84A A119U U145G | -2.68 |
| C72U G92U U135A G143A | -3.54 |
| U77C C87U A107G A110U G141C C149A | ≤ -4.2 |
| G81A G94C A106C A113U C116A G133A | ≤ -4.2 |
| C79A G86A | ≤ -4.2 |
| C79A G86C C87U G100U A106C | ≤ -4.2 |
| U77G G86U U102C G140C | ≤ -4.2 |
| C76G A120U U144G | ≤ -4.2 |
| C76A A150C | ≤ -4.2 |

| Variant | polymerase ribozyme fitness (log ratio) |
| --- | --- |
| U82C C95U C131G A142C | ≤ -4.2 |
| A73G C87G U101G U139C | ≤ -4.2 |
| C76A U102G G140C | ≤ -4.2 |
| C76U A122G | -0.0921 |
| C76U A119G G126U U139G | -0.649 |
| A73G G80C G84A | ≤ -4.2 |
| C75G A89U C93G U104G A147C | ≤ -4.2 |
| G81A G83C G88A A115U | ≤ -4.2 |
| C76A C103U U134A | -4.15 |
| G83C C85G | ≤ -4.2 |
| U82G G92A | -2.96 |
| A73G C87A G94U C118U A121G G152C | ≤ -4.2 |
| C79A U82A C85A G126A | ≤ -4.2 |
| C76U A150U | 0.843 |
| G74A A89C G94U U109G G117U | ≤ -4.2 |
| C76A G86U | -1.75 |
| G80A G86A A89U C93A A107G A122G | ≤ -4.2 |
| C75A C103G | ≤ -4.2 |
| G80U C105U G136U | -1.49 |
| G80A A150G | -1.8 |
| C76G G143C | ≤ -4.2 |
| G74C G92U | -4.02 |
| G74A G84A A137U | ≤ -4.2 |
| C76A A98U U148C | ≤ -4.2 |

| Variant | polymerase ribozyme fitness (log ratio) |
| --- | --- |
| C75G U78G U82C C118A U151C | ≤ -4.2 |
| G74A C85G U102A U145A | ≤ -4.2 |
| C76U C85U G92U U102G A138U G143C | ≤ -4.2 |
| C76U U82C A89G | -1.3 |
| C76U C87U C118G C129G | ≤ -4.2 |
| U78C G83U G86A A121C | ≤ -4.2 |
| G83A U151A | -3.69 |
| G83A A120G U139A | ≤ -4.2 |
| C76U C85A A106C | ≤ -4.2 |
| C79G G88C G92A C125G | ≤ -4.2 |
| C75U C93G | -3 |
| C76A C129G G136A | -3.95 |
| A73U G128C | ≤ -4.2 |
| G81A A97U | -0.297 |
| C72U G83A C93U U111C A120U G143U | ≤ -4.2 |
| A73G C99U | -0.979 |
| G81U G141A | 0.321 |
| U78A G83C G94U G117U G124U | ≤ -4.2 |
| G81C C85U A107C G126A | -4.16 |
| C79U C85G U148A | ≤ -4.2 |
| A73U U109A C118G C132U | ≤ -4.2 |
| C76A A122G | -0.466 |
| U78G C87G | ≤ -4.2 |
